Measured values reported in publication PMC3445539.
These are yes or no findings as the source states them, for the method shown. In cells and extracts the contact can be indirect. Some results given as binding are weak or reduced against the parent protein; the word gives no strength. Where a sequence is shown, tags or fusion partners need not be part of it.

The chains behind the UniProt entries cited, without tags or fusion partners.
UniProt Q7L2Z9: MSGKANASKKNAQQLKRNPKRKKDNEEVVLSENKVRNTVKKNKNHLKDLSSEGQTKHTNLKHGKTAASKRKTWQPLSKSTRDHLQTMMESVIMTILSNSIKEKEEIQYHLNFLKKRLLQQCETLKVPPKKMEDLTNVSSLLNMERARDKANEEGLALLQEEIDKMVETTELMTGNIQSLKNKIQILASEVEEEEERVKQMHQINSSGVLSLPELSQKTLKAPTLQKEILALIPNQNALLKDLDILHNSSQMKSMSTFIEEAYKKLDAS

Target: CENP-Q-mCherry (human) (UniProt Q7L2Z9)
Assay: FRET or BRET; acceptor photo-bleaching FRET, EGFP donor and mCherry acceptor, at kinetochores of living co-transfected HEp-2 cells in interphase

B1: EGFP-CENP-B (protein, UniProt P07199 1-599)
chain: MGPKRRQLTFREKSRIIQEVEENPDLRKGEIARRFNIPPSTLSTILKNKRAILASERKYGVASTCRKTNKLSPYDKLEGLLIAWFQQIRAAGLPVKGIILKEKALRIAEELGMDDFTASNGWLDRFRRRHGVVSCSGVARARARNAAPRTPAAPASPAAVPSEGSGGSTTGWRAREEQPPSVAEGYASQDVFSATETSLWYDFLPDQAAGLCGGDGRPRQATQRLSVLLCANADGSEKLPPLVAGKSAKPRAGQAGLPCDYTANSKGGVTTQALAKYLKALDTRMAAESRRVLLLAGRLAAQSLDTSGLRHVQLAFFPPGTVHPLERGVVQQVKGHYRQAMLLKAMAALEGQDPSGLQLGLTEALHFVAAAWQAVEPSDIAACFREAGFGGGPNATITTSLKSEGEEEEEEEEEEEEEEGEGEEEEEEGEEEEEEGGEGEELGEEEEVEEEGDVDSDEEEEEDEESSSEGLEAEDWAQGVVEAGGSFGAYGAQEEAQCPTLHFLEGGEDSDSDSEEEDDEEEDDEDEDDDDDEEDGDEVPVPSFGEAMAYFAMVKRYLTSFPIDDRVQSHILHLEHDLVHVTRKNHARQAGVRGLGHQS
For B1, the binding was “binds”.
